Experimental data taken from PMC4336329 (PLoS ONE, 2015).
About 14,000 (4.5%) of roughly 310,000 compounds showed an effect of 50% or more. The effect is printed as a negative number. Some of the results follow.

The molecules below were run against human ether-à-go-go-related gene (hERG) potassium channel (human, UniProt Q12809) (assay: primary screen, population patch clamp on CHO cells stably expressing hERG).
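Also: peak tail current of the secondary pulse compared with the same well before compound.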

human ether-à-go-go-related gene (hERG) potassium channel, sequence (Q12809 whole entry, looked up): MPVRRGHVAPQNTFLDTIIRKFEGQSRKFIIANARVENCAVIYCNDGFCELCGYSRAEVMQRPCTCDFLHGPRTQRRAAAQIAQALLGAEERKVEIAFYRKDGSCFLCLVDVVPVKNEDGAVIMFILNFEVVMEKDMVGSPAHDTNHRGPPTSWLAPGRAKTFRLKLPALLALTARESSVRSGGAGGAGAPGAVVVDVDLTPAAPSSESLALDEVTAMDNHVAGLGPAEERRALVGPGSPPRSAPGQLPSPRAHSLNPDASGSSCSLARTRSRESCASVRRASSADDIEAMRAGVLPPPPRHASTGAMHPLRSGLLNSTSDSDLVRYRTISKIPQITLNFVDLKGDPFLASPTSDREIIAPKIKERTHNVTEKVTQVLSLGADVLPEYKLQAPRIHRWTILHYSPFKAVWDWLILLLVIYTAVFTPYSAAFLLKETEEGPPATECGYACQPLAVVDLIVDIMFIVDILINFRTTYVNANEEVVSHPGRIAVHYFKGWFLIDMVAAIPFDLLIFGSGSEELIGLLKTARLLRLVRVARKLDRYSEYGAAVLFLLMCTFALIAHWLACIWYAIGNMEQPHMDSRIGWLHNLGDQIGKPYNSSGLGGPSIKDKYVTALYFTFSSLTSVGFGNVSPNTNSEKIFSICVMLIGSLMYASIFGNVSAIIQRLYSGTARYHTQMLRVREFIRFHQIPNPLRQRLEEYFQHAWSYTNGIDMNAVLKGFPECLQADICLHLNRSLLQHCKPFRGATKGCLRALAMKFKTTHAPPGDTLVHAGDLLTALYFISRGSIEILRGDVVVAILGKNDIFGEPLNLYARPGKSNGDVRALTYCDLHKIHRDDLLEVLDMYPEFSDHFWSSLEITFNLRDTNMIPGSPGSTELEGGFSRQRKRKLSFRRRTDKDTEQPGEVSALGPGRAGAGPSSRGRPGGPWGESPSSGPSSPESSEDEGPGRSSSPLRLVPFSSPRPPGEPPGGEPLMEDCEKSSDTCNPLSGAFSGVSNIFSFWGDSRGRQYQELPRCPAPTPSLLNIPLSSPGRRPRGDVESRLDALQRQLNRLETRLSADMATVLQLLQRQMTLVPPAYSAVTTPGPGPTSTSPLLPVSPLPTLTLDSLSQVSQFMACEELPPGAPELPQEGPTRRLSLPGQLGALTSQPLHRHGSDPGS

Row | Compound | hERG current change (%, negative = inhibition) at 10uM
1 | Cc1cc(-c2ccccc2)nc(N/N=C/c2ccc([N+](=O)[O-])cc2)n1 | -15.9%
2 | O=C(Nc1ccc(F)c(Cl)c1)C1CC2CCC1C2 (stereo not shown) | 3.18%
3 | CSc1nc2c(c(=O)[nH]c(=O)n2C)n1CCCc1ccccc1 | 3.11%
4 | CSCc1c(C(=O)Nc2ccc3c(c2)OCO3)oc2ccccc12 | 18.5%
5 | Clc1ccc(-n2nnnc2-c2cnc(-c3ccccn3)nc2-c2cccs2)cc1 | -26.1%
6 | CCOC(=O)c1c(NC(=O)C(C)N2CCN(C(=O)c3ccco3)CC2)sc2c1CCCC2 (stereo not shown) | -56.1%
7 | COc1ccc(S(=O)(=O)N2CCOC2CNC(=O)C(=O)NCc2ccc3c(c2)OCO3)cc1 (stereo not shown) | -25.6%
8 | O=C(COc1ccc(CO)cc1)Nc1ccc(F)cc1 | 0.156%
9 | COc1ccc(-c2csc(NC3OC(=O)c4ccccc43)n2)cc1 (stereo not shown) | 4.05%
10 | CCN1C(=O)[C@H]2[C@@H](c3ccc(C)cc3)N3C(=O)N(c4cccc(F)c4)C(=O)[C@@]3(CC)[C@H]2C1=O | -4.65%
11 | Cc1cc(C)nc(SCC(=O)Nc2ccc(S(=O)(=O)NCCO)cc2)n1 | -7.43%
12 | O=C(Nc1ccc2c(c1)OCCO2)c1cccnc1 | 8.72%
13 | CC(NC(=O)C(Cc1ccccc1)NC(=O)c1ccccc1)C(=O)O (stereo not shown) | 24%
14 | Cc1ccc(/C=C/C(=O)Nc2nnc(SCc3ccc(C#N)cc3)s2)o1 | -11%
15 | C#Cc1ccc([C@H]2C=C(C(=O)OCC=C)O[C@@H](OCc3ccc(CO)cc3)C2)cc1 | -2.79%
16 | Cc1nn(CCCC(=O)NC2CCC(C)CC2)c(=O)c2nn(-c3ccccc3)c(C)c12 (stereo not shown) | -5.97%
17 | O=C(O)c1ccccc1NCc1ccsc1 | 9.52%
18 | CC(=O)Nc1sc(C)c(C)c1C(=O)OCC(=O)N(CC(C)C)c1c(N)n(Cc2ccccc2)c(=O)[nH]c1=O | -1.37%
19 | CC(=O)Nc1ccc(S(=O)(=O)Nc2nc3cc4c(cc3nc2Cl)OCCO4)cc1 | 8.04%
20 | OCCC1CN(Cc2cccc(-n3cccn3)c2)CCN1Cc1ccccc1 (stereo not shown) | -44.8%
21 | O=C(c1cccc(Cl)c1)C1CCCN(Cc2ccc(N3CCNC3=O)cc2)C1 (stereo not shown) | -43.7%
22 | Cc1ccc([N+](=O)[O-])cc1N=C(c1cccc(Br)c1)N1CCOCC1 | 0.726%

Row | Compound | hERG current change (%, negative = inhibition) at 10uM
23 | COc1ccccc1CC(=O)N1CCCC1 | 8.49%
24 | Cc1cc(/C=C2/NC(=O)N(Cc3ccccc3F)C2=O)c(C)n1-c1ccccn1 | 9.38%
25 | CCCn1c(SCC(=O)Nc2sc(C)c(C)c2C(=O)OCC)nc2c1c(=O)n(C)c(=O)n2C | 0.59%
26 | CCCc1nc2ccccc2n1CC(O)COc1ccc(NC(C)=O)cc1 (stereo not shown) | 16.1%
27 | COc1ccc(NC(=S)NC(=O)c2cccnc2)cc1 | 16.6%
28 | CC(=O)OC(C(=O)NC1CCCCC1)c1ccccc1F (stereo not shown) | 16.4%
29 | COCCn1c(=O)[nH]c2cc(C(=O)Nc3cccc(C(C)=O)c3)ccc2c1=O | -19.8%
30 | CC1(c2ccccc2)NC(=O)N(CC(=O)NNC(=O)c2cccc(Cl)c2)C1=O (stereo not shown) | -3.79%
31 | Cl.Cn1nnnc1SCCNCc1ccccc1OCc1ccc(Cl)cc1 | -53.4%
32 | O=C(CCCCC(=O)Nc1ccc(F)cc1F)Nc1ccc(F)cc1F | 4.85%
33 | CCC(=O)Nc1ccc(-c2ccc(N3CCC(C)CC3)nn2)cc1 | 6.62%
34 | Nc1ccccc1S(N)(=O)=O | 14.9%
35 | CCc1ccc(N2C(=O)Nc3ccc(Br)cc3C2(O)C(=O)NCCN(C)C)cc1 (stereo not shown) | 6.98%
36 | CC(C)n1c(/N=C/c2c[nH]c3ccccc23)nc2ccccc21 | -1.7%
37 | CC(C)CNS(=O)(=O)c1ccc(S(=O)(=O)N2CCN(CCC#N)CC2)cc1 | 6.93%
38 | NC(=S)Cc1nc(-c2ccc(Cl)cc2)cs1 | -1.32%
39 | COCCCNC(=S)N1CCN(C(c2ccccc2)c2ccccc2)CC1 | 5.04%
40 | CCOC(=O)c1ccc(NC(=O)CCCN2C(=O)NC3(CCCC3)C2=O)cc1 | -3.62%
41 | O=C(/C=C/c1ccccc1)NCC(=O)N/N=C/c1ccccc1[N+](=O)[O-] | -14.9%
42 | Cc1cccc(/C=N/NC(=O)Cn2nc(C)cc2C)n1 | 15.5%
43 | Cc1nn(Cc2ccccc2)c(C)c1C(=O)N1CCN(S(=O)(=O)/C=C/c2ccccc2)CC1 | -24.8%
